# Experimental data from PubChem BioAssay AID504332 (National Center for Advancing Translational Sciences (NCATS), 2011).
# Hit rate of the full screen: of about 350,000 compounds, about 31,000 (8.9%) were called active. This list was built around the results that the source calls inconclusive (neither active nor inactive); the mix of calls is not that of the screen. Calls come from the whole dose curve; as a rule, active = well fitted inhibition curve with a large enough effect; inconclusive = small, poorly fitted or top-dose-only effect; inactive = no such curve, though single readings can be large or run the other way. Potencies beside an inconclusive call are fits to weak or partial responses and may not hold up.
# Molecular target: Histone-lysine N-methyltransferase EHMT2 (Homo sapiens) (UniProt Q96KQ7)
# Sequence of UniProt Q96KQ7 (Q96KQ7 whole entry, looked up): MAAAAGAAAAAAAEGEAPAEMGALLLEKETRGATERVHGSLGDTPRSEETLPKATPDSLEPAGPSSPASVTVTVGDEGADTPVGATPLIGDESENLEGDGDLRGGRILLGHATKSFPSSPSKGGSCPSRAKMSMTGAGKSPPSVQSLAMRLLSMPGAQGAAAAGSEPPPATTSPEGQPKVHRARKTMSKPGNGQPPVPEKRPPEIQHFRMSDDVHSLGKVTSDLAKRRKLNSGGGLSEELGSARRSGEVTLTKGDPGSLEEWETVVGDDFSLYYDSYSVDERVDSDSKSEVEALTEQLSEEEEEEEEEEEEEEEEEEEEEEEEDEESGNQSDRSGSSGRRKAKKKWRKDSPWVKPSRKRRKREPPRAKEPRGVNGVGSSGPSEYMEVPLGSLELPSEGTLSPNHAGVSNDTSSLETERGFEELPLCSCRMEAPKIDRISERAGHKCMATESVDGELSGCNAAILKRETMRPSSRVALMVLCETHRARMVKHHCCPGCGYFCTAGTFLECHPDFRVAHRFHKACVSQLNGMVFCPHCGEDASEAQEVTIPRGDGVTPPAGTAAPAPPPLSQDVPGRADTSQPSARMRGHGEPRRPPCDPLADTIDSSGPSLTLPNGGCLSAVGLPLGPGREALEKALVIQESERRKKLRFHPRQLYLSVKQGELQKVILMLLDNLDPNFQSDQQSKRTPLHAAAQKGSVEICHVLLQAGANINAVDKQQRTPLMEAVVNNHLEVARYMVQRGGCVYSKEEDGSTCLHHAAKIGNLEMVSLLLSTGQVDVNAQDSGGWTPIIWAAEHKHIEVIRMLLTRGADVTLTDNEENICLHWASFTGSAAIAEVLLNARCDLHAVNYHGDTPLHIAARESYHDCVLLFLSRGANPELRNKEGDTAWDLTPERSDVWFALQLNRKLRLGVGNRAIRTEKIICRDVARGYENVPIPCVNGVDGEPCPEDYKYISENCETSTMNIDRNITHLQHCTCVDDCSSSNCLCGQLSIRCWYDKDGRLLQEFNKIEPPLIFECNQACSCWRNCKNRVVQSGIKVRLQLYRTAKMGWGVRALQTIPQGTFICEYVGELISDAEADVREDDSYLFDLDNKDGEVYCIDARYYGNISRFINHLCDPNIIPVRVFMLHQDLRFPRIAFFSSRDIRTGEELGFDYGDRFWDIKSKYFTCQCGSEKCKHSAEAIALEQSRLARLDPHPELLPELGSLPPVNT
# Experiment: qHTS Assay for Inhibitors of Histone Lysine Methyltransferase G9a; note: nearly all actives have a fitted effect of over 75% in size
# Details: G9a H3K9 monomethylation, AlphaScreen, 2 h; activity, negative = inhibition: at 59 µM (top of the series) unless noted
# In short: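 Readings reflect AlphaScreen signal from monomethyl-H3K9 antibody detection. HMT at 20 nM; substrate b-H3K9 500 nM; cofactor SAM 20 uM; 2 h RT reaction; compounds tested as titrations in qHTS with 15 min preincubation.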
# % is set by controls: 0 for no effect and ±100 for the full control effect; potency is the fitted concentration of half-maximal effect; tags give direction and shape of the fitted curve.
Compound,Potency,"activity, negative = inhibition"
CC(C)(C)C1=Nn2c(nnc2-c2ccccn2)SC1,"inconclusive: 0.316 µM [inhibitor, full curve, poor fit]",–
CN(C)CCCN(C(=O)c1ccc2c(c1)CCCC2)c1nc2ccc(F)cc2s1,active: 44.7 µM,–
CCc1ccc(NC(=O)c2cc(C)no2)cc1,"inconclusive: 31.6 µM [inhibitor, single point]",–
COc1ccccc1C(=O)Nc1ccc(Oc2ncnc3sc(-c4ccccc4)cc23)cc1,–,inactive: 7.84% [at 102 µM]
CCN1C(=O)/C(=C\N2CCN(c3ccccc3)CC2)SC1=S,–,inconclusive: -91.4% [inhibitor]
COc1cc(/C=C(\C#N)C(=O)NC2CCCCC2)ccc1OCc1ccc(C(=O)O)cc1,–,inactive: -19.2%
COc1ccccc1CNC(=O)c1cn(C)c2ccc(S(=O)(=O)N3CCC(C)CC3)cc2c1=O,"inconclusive: 0.794 µM [inhibitor, partial curve, poor fit]",–
Cc1ccc(C[n+]2cc(-c3ccc(Cl)cc3)n3c2CCC3)cc1,"inconclusive: 50.1 µM [inhibitor, partial curve, poor fit]",–
O=Cc1cccn1-c1nccc(-c2ccco2)n1,–,inactive: -27.3% [at 102 µM]
COc1cccc(OC)c1-c1nn2c(-c3ccco3)nnc2s1,active: 35.5 µM,–
Cc1sc(NC(=O)C2CCCO2)c(C(N)=O)c1C (stereo unspecified),active: 7.94 µM,–
CSc1oc(-c2ccc(F)cc2)nc1S(=O)(=O)c1ccccc1,"inconclusive: 31.6 µM [inhibitor, single point]",–
C/C(=N\NC(=O)c1ccccc1C)c1cccnc1,–,inactive: 24.2% [at 102 µM]
COc1ccc(N2CCN(S(=O)(=O)c3cc(C)ccc3OC)CC2)cc1,"inconclusive: 39.8 µM [inhibitor, partial curve, poor fit]",–
CN(Cc1ccccc1)C(=O)c1[nH]cnc1C(=O)NCC(=O)OCc1ccccc1,"inconclusive: 89.1 µM [inhibitor, single point]",–
Cc1cc(C)n(CNc2nc(C(F)(F)F)cs2)n1,"inconclusive: 50.1 µM [inhibitor, partial curve, poor fit]",–
COc1ccc(-c2nnc3ccc(SCC(=O)NCc4ccco4)nn23)cc1OC,"inconclusive: 70.8 µM [inhibitor, partial curve]",–
COc1ccc(OCC(=O)O/N=C(\N)Cc2ccc(Cl)cc2)cc1,–,inactive: 162% [at 102 µM]
CCCC(=O)Nc1cc2c3c(c1)CCN3C(=O)CC2,–,inactive: 1.74%
CCN(CC)CCNCC(=O)Nc1ccc(Oc2ccccc2)cc1,"inconclusive: 3.98 µM [inhibitor, single point]",–
COc1ccc(C(=O)O)cc1N1C(=O)Nc2ccccc2N1O,"inconclusive: 89.1 µM [inhibitor, partial curve, poor fit]",–
CCC(CO)Oc1cc(NCc2ccc(OC)cc2)c2ncn(C(C)C)c2c1 (stereo unspecified),–,inactive: -3.78% [at 0.501 µM]
CCOc1ccc(Nc2nc(C)cc(C)c2C#N)cc1,"inconclusive: 1 µM [inhibitor, partial curve, poor fit]",–
CC/C(=C\C1CCCCC1)C(NP(=O)(c1ccccc1)c1ccccc1)c1ccccc1 (stereo unspecified),"inconclusive: 89.1 µM [inhibitor, single point]",–

Compound,Potency,"activity, negative = inhibition"
O=C(NCC(c1cccs1)N1CCOCC1)c1cc([N+](=O)[O-])ccc1Cl (stereo unspecified),active: 44.7 µM,–
Cc1cc(C)c(S(=O)(=O)N2CCCC2CNC(=O)c2ccc3c(c2)OCO3)c(C)c1 (stereo unspecified),"inconclusive: 44.7 µM [inhibitor, partial curve, poor fit]",–
COc1ccc(NC(=O)N[C@@H](CCSC)C(=O)O)cc1Cl,"inconclusive: 70.8 µM [inhibitor, partial curve, poor fit]",–
COc1ccc(N2CCN(S(=O)(=O)c3c(C)nc4scc(C)n4c3=O)CC2)cc1,"inconclusive: 17.8 µM [inhibitor, single point]",–
Cc1[nH]c2ccccc2c1/C=N/NC(=O)CNC(=O)Cc1ccccc1,active: 70.8 µM,–
CSc1ccc(Cl)c(C(=O)OCC(=O)N(C)CCC#N)c1,–,inactive: 1.91% [at 102 µM]
COc1cc(/C=C2\SC(=S)N(CCC(=O)N3CCN(C)CC3)C2=O)cc(OC)c1OC,active: 50.1 µM,–
Cc1ccc(C)c(NC(=O)N2CC=C(c3c[nH]c4ccccc34)CC2)c1,"inconclusive: 7.94 µM [inhibitor, partial curve]",–
O=C(CCC1CCCN(C(=O)c2ccc3c(c2)OCCO3)C1)NCc1ccccc1F (stereo unspecified),–,inactive: 4.8% [at 102 µM]
N/C(CS(=O)(=O)c1ccccn1)=N\OC(=O)c1ccccc1Cl,"inconclusive: 89.1 µM [inhibitor, single point]",–
Cc1noc(NS(=O)(=O)c2ccc(N/C=C\C(=O)c3cccc4ccccc34)cc2)c1C,"inconclusive: 31.6 µM [inhibitor, partial curve, poor fit]",–
COc1ccccc1OCC(=O)N(Cc1ccc(N(C)C)cc1)CC1CCCO1 (stereo unspecified),"inconclusive: 11.2 µM [inhibitor, partial curve]",–
Cc1ccc(NC(=O)CN(C)C(=O)CSc2nc(C)cc(C)n2)cc1,–,inactive: 1.05% [at 102 µM]
Cc1cc(C(=O)Cn2cncn2)c(C)n1CCc1ccc(F)cc1,"inconclusive: 56.2 µM [inhibitor, partial curve, poor fit]",–
Cc1ccc(C)c(S(=O)(=O)N2CCCCC2CCNC(=O)C(=O)NCCc2ccco2)c1 (stereo unspecified),"inconclusive: 50.1 µM [inhibitor, partial curve]",–
O=C1C2C3CCCC3=C3CCCC3C2C(=O)N1c1ccccc1 (stereo unspecified),active: 20 µM,–
O=C(Nc1ccccn1)C(NS(=O)(=O)c1cccc2nsnc12)c1ccccc1 (stereo unspecified),"inconclusive: 28.2 µM [inhibitor, partial curve, poor fit]",–
CCOC(=O)C1CCN(Cc2coc3c(Cl)cc(Cl)cc3c2=O)CC1,active: 11.2 µM,–
CCCN(CCC)CCNC(=O)C1CCN(S(=O)(=O)c2cccc3nsnc23)CC1,"inconclusive: 89.1 µM [inhibitor, partial curve, poor fit]",–
CCOC(=O)NC1=NCC(C)S1 (stereo unspecified),–,inactive: -1.76% [at 102 µM]
O=C(CNC(=O)c1ccccn1)N/N=C/c1ccccc1,"inconclusive: 8.91 µM [inhibitor, single point]",–
COc1ccc(-n2nc3ccc(NC(=O)COc4ccc(C)c(C)c4)cc3n2)cc1,"inconclusive: 25.1 µM [inhibitor, single point]",–
Cc1cc(SCC(=O)N(C)c2c(N)n(Cc3ccccc3)c(=O)[nH]c2=O)nc2ccccc12,"inconclusive: 12.6 µM [inhibitor, partial curve, poor fit]",–
Cc1cccc(NC(=O)c2sc3nc(N4CCOCC4)c4c(c3c2N)CCCC4)c1,–,inactive: 6.18% [at 0.501 µM]

Compound,Potency,"activity, negative = inhibition"
COC(=O)c1ccc(O)c(Sc2cc(C(=O)OC)ccc2O)c1,active: 10 µM,–
COc1ccc(C2C(C(C)=O)=C(O)C(=O)N2Cc2ccccc2)c(OC)c1 (stereo unspecified),active: 50.1 µM,–
CCCCn1c(N)c(N(CCOC)C(=O)c2cccc(S(=O)(=O)N3CCCCC3)c2)c(=O)[nH]c1=O,active: 50.1 µM,–
COC(=O)c1ccc(COC(=O)C2CC(O)CN2S(=O)(=O)c2ccc([N+](=O)[O-])cc2)cc1 (stereo unspecified),"inconclusive: 5.62 µM [inhibitor, single point]",–
CC(=O)c1ccc(N2C(=NC(=O)C3CCCO3)SC3CS(=O)(=O)CC32)cc1 (stereo unspecified),–,inactive: -1.93% [at 102 µM]
CC(C)(C)OC(=O)N[C@H](C(=O)OC(C)(C)C)c1ccc2ccccc2c1,–,inactive: 1.02% [at 0.501 µM]
CS(=O)(=O)N(CC(=O)NCC1CCCO1)c1cccc([N+](=O)[O-])c1 (stereo unspecified),–,inactive: 11.6% [at 102 µM]
CCC(=O)N1CCc2cc(Br)cc(S(=O)(=O)NCCc3ccccc3Cl)c21,–,inactive: -0.383%
CCc1noc(C)c1C(=O)Nc1nc2ccc(F)cc2s1,active: 15.8 µM,–
Cc1ccc(-c2noc(C3CCCN(S(=O)(=O)c4ccc5ccccc5c4)C3)n2)o1 (stereo unspecified),active: 35.5 µM,–
Cc1ccc(-c2c(C(=O)N3CCN(c4cccc(C)c4C)CC3)oc(=O)c3ccccc23)cc1,"inconclusive: 11.2 µM [inhibitor, partial curve]",–
Cc1cc2oc(C(=O)NCc3ccncc3)c(C)c2cc1C,"inconclusive: 79.4 µM [inhibitor, single point]",–
Cc1cccc(NC(=O)Cn2cc(S(=O)(=O)c3ccc(F)cc3)c(=O)c3cc4c(cc32)OCO4)c1,–,inactive: -33.6%
S=c1[nH]nc(-c2ccc3ccccc3n2)n1-c1ccccc1,active: 1.58 µM,–
O=C(CSc1nc(-c2ccccc2)c(-c2ccccc2)[nH]1)NCc1ccco1,"inconclusive: 50.1 µM [inhibitor, partial curve, poor fit]",–
Cc1ccccc1Cc1c(C)nc2nc(SCC(=O)NCCCN3CCCC3)nn2c1C,"inconclusive: 89.1 µM [inhibitor, single point]",–
O=C(Nc1cc(=O)[nH]c2nc(-c3ccccc3)nn12)c1ccccc1Cl,"inconclusive: 70.8 µM [inhibitor, partial curve, poor fit]",–
COc1ccccc1C(=O)Nc1ccc(-c2nnc(SCC(=O)O)n2C)cc1,"inconclusive: 2 µM [inhibitor, partial curve, poor fit]",–
Clc1ccc2nc(CN3CCCCC3)cn2c1,active: 50.1 µM,–
Cc1ccc(S(=O)(=O)N/N=C/c2cccn2-c2ccc(Cl)cc2)cc1,–,inactive: 110%
COc1cc(C(=S)N2CCOCC2)ccc1OC(=O)Cc1ccc(F)cc1,"inconclusive: 39.8 µM [inhibitor, single point]",–
CCOC(=O)c1sc(=S)n2c1[nH]c(=O)c1ccc(C(=O)OC)cc12,active: 7.94 µM,–
S=C(NCCCCNC(=S)NCc1ccccc1)NCc1ccccc1,active: 44.7 µM,–
